T1: CD25 (human, UniProt P01589 22-272)
T1 sequence (looked up): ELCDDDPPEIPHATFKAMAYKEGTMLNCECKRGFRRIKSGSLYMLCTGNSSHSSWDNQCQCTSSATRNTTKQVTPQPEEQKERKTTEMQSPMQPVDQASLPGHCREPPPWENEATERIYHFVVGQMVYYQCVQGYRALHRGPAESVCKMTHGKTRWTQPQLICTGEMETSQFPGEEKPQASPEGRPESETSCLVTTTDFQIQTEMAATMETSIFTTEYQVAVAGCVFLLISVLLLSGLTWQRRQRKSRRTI


Tests used:
[1] = biological target: T1, CD25; assay: cell-based or functional assay
[2] = biological target: T1, CD25; assay: cell-based or functional assay; remark: listed apart in the source

Binder	EC50 (µg/mL), MTS cytotoxicity assay on SU-DHL-1 cells [1]	EC50 (µg/mL), MTS cytotoxicity assay on Karpas299 cells [2]
HuMax-TAC-E (other, PBD drug-linker E conjugated to reduced interchain cysteine thiols; DAR 2.3) VH: QVQLVQSGAEVKKPGSSVKVSCKASGGTFSRYIINWVRQAPGQGLEWMGRIIPILGVENYAQKFQGRVTITADKSTSTAYMELSSLRSEDTAVYYCARKDWFDYWGQGTLVTVSSASTKGPSVFPLA VL: EIVLTQSPGTLSLSPGERATLS[omitted - about 80 residues]TFGGGTKVEIKRTVAAPSVFIFP	0.000592 µg/mL	0.000742 µg/mL
HuMax-TAC-A (other, PBD drug-linker A conjugated to reduced interchain cysteine thiols; DAR 2.19) VH: QVQLVQSGAEVKKPGSSVKVSCKASGGTFSRYIINWVRQAPGQGLEWMGRIIPILGVENYAQKFQGRVTITADKSTSTAYMELSSLRSEDTAVYYCARKDWFDYWGQGTLVTVSSASTKGPSVFPLA VL: EIVLTQSPGTLSLSPGERATLS[omitted - about 80 residues]TFGGGTKVEIKRTVAAPSVFIFP		0.00206 µg/mL
HuMax-TAC-D (other, PBD drug-linker D conjugated to reduced interchain cysteine thiols; DAR 1.25) VH: QVQLVQSGAEVKKPGSSVKVSCKASGGTFSRYIINWVRQAPGQGLEWMGRIIPILGVENYAQKFQGRVTITADKSTSTAYMELSSLRSEDTAVYYCARKDWFDYWGQGTLVTVSSASTKGPSVFPLA VL: EIVLTQSPGTLSLSPGERATLS[omitted - about 80 residues]TFGGGTKVEIKRTVAAPSVFIFP	0.00104 µg/mL	0.00338 µg/mL

— patent publication US20150283263A1 (ADC THERAPEUTICS S A, published 2015)
